The record followed here is the supplement of paper PMC10369915.

The list shows a part of the results. Cut-off read from the data, not from the text of the source: active = 3.2 or more and inactive = the rest. Only a few entries rise above the background.
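Note: displayed peptides selected on beads carrying the immobilized SH2 domain, with library peptides lacking any tyrosine serving as negative controls.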

For one assay, the target named is SHP2 C-SH2 domain E139D. Nature of the assay: enrichment score (SH2-bound / input frequency) (ratio); bacterial display of known human phosphotyrosine sites (pTyr-Var adds point mutants) read by sequencing; higher = stronger binding; tyrosines were phosphorylated by kinases first. As to conditions: peptide library: Human pTyr.
Consider SSNAMAPYDNAVPSA [PGFRB_HUMAN_775_YA], for which the enrichment score was inactive: 0.67.

ERDINSLYDVSRMYV [PLCG2_HUMAN_753]: the enrichment score was inactive: 0.77.

For IGTAEPDYGALAEGR [PLCG1_HUMAN_771_YA], the enrichment score is inactive: 0.652.

Turning to GQQQYDIYERMVPPR [PKP4_HUMAN_372], the enrichment score was inactive: 0.642.

Take VRYQPGKYPMPNQSV [PLS4_HUMAN_88]: the enrichment score is inactive: 2.2.

For the molecule KGKKFLQYNRLQLSR [PLCG1_HUMAN_1003], the enrichment score was inactive: 1.88.

For ADIESSNYMAPADNA [PGFRB_HUMAN_771_YA], the enrichment score was inactive: 0.781.

In the case of KGYSDEIYVVPDDSQ [ARHGAP5_HUMAN_1109], the enrichment score is inactive: 0.926.

For the molecule FGIKPDDYLASICSE [PIP5K1B_HUMAN_105_YA], the enrichment score was inactive: 1.15.

NRYAGEVYGMIRFSG [PI4KA_HUMAN_1154]: the enrichment score was inactive: 1.85.

ERKEVSKYSDIQRSL [PGFRA_HUMAN_754]: the enrichment score is inactive: 1.31.

On to EELEEPVYEEPVAEE [ARAP3_HUMAN_1403_YA], for which the enrichment score is inactive: 1.27.

For TKGYYSPYSVSGSGS [PLEC_HUMAN_4615], the enrichment score is inactive: 1.36.

For DIMHDSNYVSKGSTF [PGFRA_HUMAN_849], the enrichment score is inactive: 0.711.

With TLCGTPNYISPEIAT [PLK4_HUMAN_177], the enrichment score was inactive: 1.

On to EELEEPVYEEPVYEE [ARAP3_HUMAN_1403], for which the enrichment score was inactive: 1.32.

Regarding EGRNPGFYVEANPMP [PLCG1_HUMAN_783], the enrichment score is inactive: 0.523.

On to NRAAGEVYGMIRFSG [PI4KA_HUMAN_1154_YA], for which the enrichment score is inactive: 1.57.

Another assay deals with SHP2 C-SH2 domain wild-type. The assay is described as above. As to conditions: peptide library: Human pTyr.
For SSNAMAPYDNAVPSA [PGFRB_HUMAN_775_YA], the enrichment score is inactive: 0.524.

As to ERDINSLYDVSRMYV [PLCG2_HUMAN_753], the enrichment score is inactive: 0.612.

Regarding IGTAEPDYGALAEGR [PLCG1_HUMAN_771_YA], the enrichment score was inactive: 0.44.

Turning to GQQQYDIYERMVPPR [PKP4_HUMAN_372], the enrichment score is inactive: 0.55.

In the case of VRYQPGKYPMPNQSV [PLS4_HUMAN_88], the enrichment score was inactive: 2.49.

Regarding KGKKFLQYNRLQLSR [PLCG1_HUMAN_1003], the enrichment score was inactive: 1.74.

With ADIESSNYMAPADNA [PGFRB_HUMAN_771_YA], the enrichment score was inactive: 0.744.

Regarding KGYSDEIYVVPDDSQ [ARHGAP5_HUMAN_1109], the enrichment score is inactive: 0.967.

In the case of FGIKPDDYLASICSE [PIP5K1B_HUMAN_105_YA], the enrichment score was inactive: 0.894.

On to NRYAGEVYGMIRFSG [PI4KA_HUMAN_1154], for which the enrichment score was inactive: 1.57.

ERKEVSKYSDIQRSL [PGFRA_HUMAN_754]: the enrichment score is inactive: 1.48.

Regarding EELEEPVYEEPVAEE [ARAP3_HUMAN_1403_YA], the enrichment score is inactive: 1.11.

With TKGYYSPYSVSGSGS [PLEC_HUMAN_4615], the enrichment score is inactive: 2.84.

DIMHDSNYVSKGSTF [PGFRA_HUMAN_849]: the enrichment score was inactive: 0.708.

On to TLCGTPNYISPEIAT [PLK4_HUMAN_177], for which the enrichment score is inactive: 0.767.

Consider EELEEPVYEEPVYEE [ARAP3_HUMAN_1403], for which the enrichment score was inactive: 1.24.

On to EGRNPGFYVEANPMP [PLCG1_HUMAN_783], for which the enrichment score is inactive: 0.897.

For NRAAGEVYGMIRFSG [PI4KA_HUMAN_1154_YA], the enrichment score is inactive: 1.26.

The target of a further assay is SHP2 N-SH2 domain L43F. The description is as above. As to conditions: peptide library: Human pTyr.
On to SSNAMAPYDNAVPSA [PGFRB_HUMAN_775_YA], for which the enrichment score is inactive: 0.547.

For the molecule ERDINSLYDVSRMYV [PLCG2_HUMAN_753], the enrichment score was inactive: 0.707.

Take IGTAEPDYGALAEGR [PLCG1_HUMAN_771_YA]: the enrichment score is inactive: 0.606.

Turning to GQQQYDIYERMVPPR [PKP4_HUMAN_372], the enrichment score is inactive: 0.576.

Consider VRYQPGKYPMPNQSV [PLS4_HUMAN_88], for which the enrichment score was inactive: 2.07.

As for KGKKFLQYNRLQLSR [PLCG1_HUMAN_1003], the enrichment score was inactive: 1.95.

As for ADIESSNYMAPADNA [PGFRB_HUMAN_771_YA], the enrichment score is inactive: 0.709.

KGYSDEIYVVPDDSQ [ARHGAP5_HUMAN_1109]: the enrichment score was inactive: 1.02.

In the case of FGIKPDDYLASICSE [PIP5K1B_HUMAN_105_YA], the enrichment score was inactive: 1.07.

On to NRYAGEVYGMIRFSG [PI4KA_HUMAN_1154], for which the enrichment score was inactive: 1.51.

Take ERKEVSKYSDIQRSL [PGFRA_HUMAN_754]: the enrichment score is inactive: 0.905.

On to EELEEPVYEEPVAEE [ARAP3_HUMAN_1403_YA], for which the enrichment score was inactive: 1.07.

Regarding TKGYYSPYSVSGSGS [PLEC_HUMAN_4615], the enrichment score is inactive: 0.849.

In the case of DIMHDSNYVSKGSTF [PGFRA_HUMAN_849], the enrichment score is inactive: 0.636.

Consider TLCGTPNYISPEIAT [PLK4_HUMAN_177], for which the enrichment score was inactive: 1.06.

For the molecule EELEEPVYEEPVYEE [ARAP3_HUMAN_1403], the enrichment score was inactive: 1.23.

As to EGRNPGFYVEANPMP [PLCG1_HUMAN_783], the enrichment score is inactive: 0.716.

Consider NRAAGEVYGMIRFSG [PI4KA_HUMAN_1154_YA], for which the enrichment score was inactive: 1.29.

The next assay has as its target SHP2 N-SH2 domain T42A. The description is as above. As to conditions: peptide library: Human pTyr.
In the case of SSNAMAPYDNAVPSA [PGFRB_HUMAN_775_YA], the enrichment score was inactive: 0.64.

In the case of ERDINSLYDVSRMYV [PLCG2_HUMAN_753], the enrichment score is inactive: 0.594.

In the case of IGTAEPDYGALAEGR [PLCG1_HUMAN_771_YA], the enrichment score was inactive: 0.683.

With GQQQYDIYERMVPPR [PKP4_HUMAN_372], the enrichment score is inactive: 0.6.

On to VRYQPGKYPMPNQSV [PLS4_HUMAN_88], for which the enrichment score is inactive: 2.21.

In the case of KGKKFLQYNRLQLSR [PLCG1_HUMAN_1003], the enrichment score was inactive: 1.64.

For the molecule ADIESSNYMAPADNA [PGFRB_HUMAN_771_YA], the enrichment score was inactive: 0.534.

With KGYSDEIYVVPDDSQ [ARHGAP5_HUMAN_1109], the enrichment score is inactive: 0.899.

FGIKPDDYLASICSE [PIP5K1B_HUMAN_105_YA]: the enrichment score was inactive: 0.882.

For NRYAGEVYGMIRFSG [PI4KA_HUMAN_1154], the enrichment score was inactive: 1.76.

Take ERKEVSKYSDIQRSL [PGFRA_HUMAN_754]: the enrichment score was inactive: 0.842.

As to EELEEPVYEEPVAEE [ARAP3_HUMAN_1403_YA], the enrichment score is inactive: 1.09.

Consider TKGYYSPYSVSGSGS [PLEC_HUMAN_4615], for which the enrichment score is inactive: 0.908.

As for DIMHDSNYVSKGSTF [PGFRA_HUMAN_849], the enrichment score is inactive: 0.564.

In the case of TLCGTPNYISPEIAT [PLK4_HUMAN_177], the enrichment score was inactive: 0.959.

As to EELEEPVYEEPVYEE [ARAP3_HUMAN_1403], the enrichment score is inactive: 1.28.

With EGRNPGFYVEANPMP [PLCG1_HUMAN_783], the enrichment score is inactive: 0.616.

As to NRAAGEVYGMIRFSG [PI4KA_HUMAN_1154_YA], the enrichment score is inactive: 1.24.

In another assay the target is SHP2 N-SH2 domain T52S. Described as above. Particulars: peptide library: Human pTyr.
As to SSNAMAPYDNAVPSA [PGFRB_HUMAN_775_YA], the enrichment score was inactive: 0.529.

Turning to ERDINSLYDVSRMYV [PLCG2_HUMAN_753], the enrichment score is inactive: 0.711.

For the molecule IGTAEPDYGALAEGR [PLCG1_HUMAN_771_YA], the enrichment score was inactive: 0.481.

With GQQQYDIYERMVPPR [PKP4_HUMAN_372], the enrichment score was inactive: 0.679.

Consider VRYQPGKYPMPNQSV [PLS4_HUMAN_88], for which the enrichment score was inactive: 2.7.

As for KGKKFLQYNRLQLSR [PLCG1_HUMAN_1003], the enrichment score was inactive: 1.83.

For ADIESSNYMAPADNA [PGFRB_HUMAN_771_YA], the enrichment score was inactive: 0.927.

Take KGYSDEIYVVPDDSQ [ARHGAP5_HUMAN_1109]: the enrichment score is inactive: 0.9.

Turning to FGIKPDDYLASICSE [PIP5K1B_HUMAN_105_YA], the enrichment score was inactive: 1.28.

With NRYAGEVYGMIRFSG [PI4KA_HUMAN_1154], the enrichment score was inactive: 1.91.

As to ERKEVSKYSDIQRSL [PGFRA_HUMAN_754], the enrichment score is inactive: 0.956.

As for EELEEPVYEEPVAEE [ARAP3_HUMAN_1403_YA], the enrichment score is inactive: 1.2.

TKGYYSPYSVSGSGS [PLEC_HUMAN_4615]: the enrichment score is inactive: 0.844.

Regarding DIMHDSNYVSKGSTF [PGFRA_HUMAN_849], the enrichment score is inactive: 0.652.

On to TLCGTPNYISPEIAT [PLK4_HUMAN_177], for which the enrichment score is inactive: 0.962.

For EELEEPVYEEPVYEE [ARAP3_HUMAN_1403], the enrichment score is inactive: 1.73.

For the molecule EGRNPGFYVEANPMP [PLCG1_HUMAN_783], the enrichment score is inactive: 0.735.

Take NRAAGEVYGMIRFSG [PI4KA_HUMAN_1154_YA]: the enrichment score was inactive: 1.31.

For a further assay, the target named is SHP2 N-SH2 domain wild-type. Described as above. Particulars: peptide library: Human pTyr.
For SSNAMAPYDNAVPSA [PGFRB_HUMAN_775_YA], the enrichment score is inactive: 0.485.

In the case of ERDINSLYDVSRMYV [PLCG2_HUMAN_753], the enrichment score was inactive: 0.695.

For the molecule IGTAEPDYGALAEGR [PLCG1_HUMAN_771_YA], the enrichment score is inactive: 0.506.

GQQQYDIYERMVPPR [PKP4_HUMAN_372]: the enrichment score is inactive: 0.582.

Turning to VRYQPGKYPMPNQSV [PLS4_HUMAN_88], the enrichment score is active: 3.31.

Turning to KGKKFLQYNRLQLSR [PLCG1_HUMAN_1003], the enrichment score was inactive: 1.98.

As for ADIESSNYMAPADNA [PGFRB_HUMAN_771_YA], the enrichment score was inactive: 0.959.

As for KGYSDEIYVVPDDSQ [ARHGAP5_HUMAN_1109], the enrichment score was inactive: 1.02.

For FGIKPDDYLASICSE [PIP5K1B_HUMAN_105_YA], the enrichment score is inactive: 1.25.

NRYAGEVYGMIRFSG [PI4KA_HUMAN_1154]: the enrichment score is inactive: 2.

As to ERKEVSKYSDIQRSL [PGFRA_HUMAN_754], the enrichment score is inactive: 1.1.

In the case of EELEEPVYEEPVAEE [ARAP3_HUMAN_1403_YA], the enrichment score is inactive: 1.45.

TKGYYSPYSVSGSGS [PLEC_HUMAN_4615]: the enrichment score is inactive: 0.82.

Regarding DIMHDSNYVSKGSTF [PGFRA_HUMAN_849], the enrichment score was inactive: 0.551.

Consider TLCGTPNYISPEIAT [PLK4_HUMAN_177], for which the enrichment score is inactive: 1.02.

As for EELEEPVYEEPVYEE [ARAP3_HUMAN_1403], the enrichment score is inactive: 1.6.

As to EGRNPGFYVEANPMP [PLCG1_HUMAN_783], the enrichment score was inactive: 0.711.

On to NRAAGEVYGMIRFSG [PI4KA_HUMAN_1154_YA], for which the enrichment score was inactive: 1.48.
